Experimental data taken from PMC2762312.
Results are given in words; binding and its absence hold for the method and conditions named. Some entries that bind do so weakly or less than the wild type.

Columns and labels:
Test in all cases: two-hybrid; … GAL4 Two-Hybrid System 3 (pGBKT7 bait, pGADT7 prey) in AH109 yeast; colonies from -Leu/-Trp plates streaked on high stringency -Ade/-His/-Leu/-Trp plates, 30 °C for up to 5 days, scored for growth
[1] = target: T1, Drosophila lamin Dm0 (Drosophila melanogaster) (UniProt P08928)
T1 sequence: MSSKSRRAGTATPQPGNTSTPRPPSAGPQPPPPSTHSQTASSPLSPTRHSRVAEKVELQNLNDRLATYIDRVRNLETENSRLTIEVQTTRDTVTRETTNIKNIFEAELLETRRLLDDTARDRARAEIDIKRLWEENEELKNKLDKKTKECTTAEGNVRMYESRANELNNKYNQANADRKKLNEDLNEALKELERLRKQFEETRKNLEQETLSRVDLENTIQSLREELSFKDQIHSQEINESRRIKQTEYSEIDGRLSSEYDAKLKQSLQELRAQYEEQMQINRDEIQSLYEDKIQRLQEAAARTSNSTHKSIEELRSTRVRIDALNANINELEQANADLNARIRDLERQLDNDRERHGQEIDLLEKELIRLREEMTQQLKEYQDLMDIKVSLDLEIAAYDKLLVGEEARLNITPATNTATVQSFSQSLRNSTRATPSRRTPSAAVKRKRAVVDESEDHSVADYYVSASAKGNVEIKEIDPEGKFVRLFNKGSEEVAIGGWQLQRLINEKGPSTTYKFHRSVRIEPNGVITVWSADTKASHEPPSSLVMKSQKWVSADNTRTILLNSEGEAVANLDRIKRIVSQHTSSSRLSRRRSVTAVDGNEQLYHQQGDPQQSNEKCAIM

[2] = target: T2, Drosophila Lamin C (Drosophila melanogaster) (UniProt Q03427)
T2 sequence: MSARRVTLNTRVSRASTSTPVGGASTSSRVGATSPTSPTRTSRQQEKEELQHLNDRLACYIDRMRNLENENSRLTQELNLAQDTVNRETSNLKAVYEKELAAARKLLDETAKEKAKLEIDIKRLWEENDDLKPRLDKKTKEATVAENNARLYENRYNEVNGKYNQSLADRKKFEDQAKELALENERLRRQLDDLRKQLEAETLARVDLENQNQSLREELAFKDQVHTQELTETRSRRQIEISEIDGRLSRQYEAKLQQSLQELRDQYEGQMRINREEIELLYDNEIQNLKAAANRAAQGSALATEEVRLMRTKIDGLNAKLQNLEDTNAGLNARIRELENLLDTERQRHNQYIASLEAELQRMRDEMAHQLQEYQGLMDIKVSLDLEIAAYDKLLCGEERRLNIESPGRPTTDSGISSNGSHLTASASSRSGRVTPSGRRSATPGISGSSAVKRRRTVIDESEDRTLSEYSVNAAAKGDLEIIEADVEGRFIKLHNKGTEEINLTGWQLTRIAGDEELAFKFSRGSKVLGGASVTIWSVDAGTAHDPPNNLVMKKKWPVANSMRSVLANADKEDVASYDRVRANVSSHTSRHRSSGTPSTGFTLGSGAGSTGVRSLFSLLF

human emerin (human) = target: T3, human emerin (human) (UniProt P50402)
T3 sequence: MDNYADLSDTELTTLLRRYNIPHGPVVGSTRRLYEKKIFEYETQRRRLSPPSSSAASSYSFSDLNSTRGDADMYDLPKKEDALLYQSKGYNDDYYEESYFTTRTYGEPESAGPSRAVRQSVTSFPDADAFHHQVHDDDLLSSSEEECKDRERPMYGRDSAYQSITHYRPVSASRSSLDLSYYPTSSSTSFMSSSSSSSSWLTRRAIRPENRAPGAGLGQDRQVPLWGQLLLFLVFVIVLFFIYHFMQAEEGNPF

[3] = target: T4, human emerin (human), P50402; conditions: remark: other sources report otherwise
T4 chain: T3 sequence

In the case of “human Lamin A (from UniProt P02545 1-664)”, the binding [1] is reported as “binds” and the binding [2] is reported as “binds”.

In the case of “human Lamin C (from UniProt P02545-2 1-572)”, the binding [1] is reported as “binds” and the binding [2] is reported as “binds”.

B1: human Lamin B2 (protein, UniProt Q03252 1-620)
chain: MSPPSPGRRREQRRPRAAATMATPLPGRAGGPATPLSPTRLSRLQEKEELRELNDRLAHYIDRVRALELENDRLLLKISEKEEVTTREVSGIKALYESELADARRVLDETARERARLQIEIGKLRAELDEVNKSAKKREGELTVAQGRVKDLESLFHRSEVELAAALSDKRGLESDVAELRAQLAKAEDGHAVAKKQLEKETLMRVDLENRCQSLQEELDFRKSVFEEEVRETRRRHERRLVEVDSSRQQEYDFKMAQALEELRSQHDEQVRLYKLELEQTYQAKLDSAKLSSDQNDKAASAAREELKEARMRLESLSYQLSGLQKQASAAEDRIRELEEAMAGERDKFRKMLDAKEQEMTEMRDVMQQQLAEYQELLDVKLALDMEINAYRKLLEGEEERLKLSPSPSSRVTVSRATSSSSGSLSATGRLGRSKRKRLEVEEPLGSGPSVLGTGTGGSGGFHLAQQASASGSVSIEEIDLEGKFVQLKNNSDKDQSLGNWRIKRQVLEGEEIAYKFTPKYILRAGQMVTVWAAGAGVAHSPPSTLVWKGQSSWGTGESFRTVLVNADGEEVAMRTVKKSSVMRENENGEEEEEEAEFGEEDLFHQQGDPRTTSRGCYVM
With B1 the binding [1] was “binds”, the binding (human emerin (human)) was “binds” and the binding [2] was “binds”.

B2: Drosophila Barrier-to-Autointegration Factor (protein, UniProt Q9VLU0 1-90)
chain: MSGTSQKHRNFVAEPMGNKSVTELAGIGETLGGRLKDAGFDMAYTVLGQYLVLKKDEELFKDWMKEVCHASSKQASDCYNCLNDWCEEFL
For B2, the binding (human emerin (human)) was “binds”.

B3: Drosophila Lamin C (protein, UniProt Q03427 1-621)
chain: T2 sequence
B3 was tested, and the binding (human emerin (human)) was “no binding”.

B4: human Lamin A, P02545 1-664 (protein)
chain: METPSQRRATRSGAQASSTPLSPTRITRLQEKEDLQELNDRLAVYIDRVRSLETENAGLRLRITESEEVVSREVSGIKAAYEAELGDARKTLDSVAKERARLQLELSKVREEFKELKARNTKKEGDLIAAQARLKDLEALLNSKEAALSTALSEKRTLEGELHDLRGQVAKLEAALGEAKKQLQDEMLRRVDAENRLQTMKEELDFQKNIYSEELRETKRRHETRLVEIDNGKQREFESRLADALQELRAQHEDQVEQYKKELEKTYSAKLDNARQSAERNSNLVGAAHEELQQSRIRIDSLSAQLSQLQKQLAAKEAKLRDLEDSLARERDTSRRLLAEKEREMAEMRARMQQQLDEYQELLDIKLALDMEIHAYRKLLEGEEERLRLSPSPTSQRSRGRASSHSSQTQGGGSVTKKRKLESTESRSSFSQHARTSGRVAVEEVDEEGKFVRLRNKSNEDQSMGNWQIKRQNGDDPLLTYRFPPKFTLKAGQVVTIWAAGAGATHSPPTDLVWKAQNTWGCGNSLRTALINSTGEEVAMRKLVRSVTVVEDDEDEDGDDLLHHHHGSHCSSSGDPAEYNLRSRTVLCGTCGQPADKASASGSGAQVGGPISSGSSASSVTVTRSYRSVGGSGGGSFGDNLVTRSYLLGNSSPRTQSPQNCSIM
B4 was tested, and the binding [3] was “no binding”.

B5: human Lamin C, P02545-2 1-572 (protein)
chain: METPSQRRATRSGAQASSTPLSPTRITRLQEKEDLQELNDRLAVYIDRVRSLETENAGLRLRITESEEVVSREVSGIKAAYEAELGDARKTLDSVAKERARLQLELSKVREEFKELKARNTKKEGDLIAAQARLKDLEALLNSKEAALSTALSEKRTLEGELHDLRGQVAKLEAALGEAKKQLQDEMLRRVDAENRLQTMKEELDFQKNIYSEELRETKRRHETRLVEIDNGKQREFESRLADALQELRAQHEDQVEQYKKELEKTYSAKLDNARQSAERNSNLVGAAHEELQQSRIRIDSLSAQLSQLQKQLAAKEAKLRDLEDSLARERDTSRRLLAEKEREMAEMRARMQQQLDEYQELLDIKLALDMEIHAYRKLLEGEEERLRLSPSPTSQRSRGRASSHSSQTQGGGSVTKKRKLESTESRSSFSQHARTSGRVAVEEVDEEGKFVRLRNKSNEDQSMGNWQIKRQNGDDPLLTYRFPPKFTLKAGQVVTIWAAGAGATHSPPTDLVWKAQNTWGCGNSLRTALINSTGEEVAMRKLVRSVTVVEDDEDEDGDDLLHHHHVSGSRR
In the case of B5, the binding [3] is reported as “no binding”.
